Results are given in words; binding and its absence hold for the method and conditions named. For part of these data: Binding seen in cells or lysates may run through a third protein. Some entries that bind do so weakly or less than the wild type. Blank lines part the entries; values can stand above or below the substance they belong to.
How the values were obtained:
[1] = target: HA-tagged Sox9 (mouse) (UniProt Q04887); assay: co-IP; HEK293 cells co-transfected with HA-Sox and FLAG-Exp4 for 36 hr; lysate, anti-HA (12CA5) on protein A-Sepharose; Western blot with anti-Exp4 and anti-HA
[2] = target: HA-tagged mouse Sox2 (mouse) (UniProt P48432); assay: as above
[3] = target: HA-tagged mouse Sox11 (mouse) (UniProt Q7M6Y2); assay: as above
[4] = target: GST-fused Sox9 region #3 (173–399 a.a.) (mouse) (UniProt Q04887); assay: pull-down; GST-fused Sox9 fragments on glutathione-Sepharose incubated with HeLa nuclear extract 2 hr at 4°C; Western blot with anti-Exp4; only the target purified
[5] = target: GST-fused Sox9 region #2 (95–186 a.a.), HMG box domain (mouse) (UniProt Q04887); assay: as above
[6] = target: GST-fused Sox9 region #4 (336–507 a.a.) (mouse) (UniProt Q04887); assay: as above
[7] = target: GST-fused Sox9 region #1 (1–99 a.a.) (mouse) (UniProt Q04887); assay: as above
[8] = target: Sox9, endogenous in U2OS nuclear extract (human (endogenous in U2OS)) (UniProt P48436); assay: co-IP; U2OS nuclear extract, anti-Sox9 antibody 1 hr at 4°C, protein A-Sepharose; Western blot with anti-Exp4; normal rabbit IgG as control
[9] = target: GST-tagged HMG box fragment of Sox11 (38–130 a.a.) (mouse) (UniProt Q7M6Y2); assay: pull-down; GST-fused HMG box fragments incubated with purified recombinant FLAG-Exp4 and glutathione Sepharose 2 hr at 4°C; Western blot with anti-Exp4; no RanGTP; both purified

The chains behind the UniProt entries cited, without tags or fusion partners. Where a name states a change or a piece, a line headed by the entry shows the natural chain unless it says otherwise. A line that says so, or that is headed by a name, gives the form on record, which may keep a tag or linker. Residues count along the entry.
UniProt Q04887: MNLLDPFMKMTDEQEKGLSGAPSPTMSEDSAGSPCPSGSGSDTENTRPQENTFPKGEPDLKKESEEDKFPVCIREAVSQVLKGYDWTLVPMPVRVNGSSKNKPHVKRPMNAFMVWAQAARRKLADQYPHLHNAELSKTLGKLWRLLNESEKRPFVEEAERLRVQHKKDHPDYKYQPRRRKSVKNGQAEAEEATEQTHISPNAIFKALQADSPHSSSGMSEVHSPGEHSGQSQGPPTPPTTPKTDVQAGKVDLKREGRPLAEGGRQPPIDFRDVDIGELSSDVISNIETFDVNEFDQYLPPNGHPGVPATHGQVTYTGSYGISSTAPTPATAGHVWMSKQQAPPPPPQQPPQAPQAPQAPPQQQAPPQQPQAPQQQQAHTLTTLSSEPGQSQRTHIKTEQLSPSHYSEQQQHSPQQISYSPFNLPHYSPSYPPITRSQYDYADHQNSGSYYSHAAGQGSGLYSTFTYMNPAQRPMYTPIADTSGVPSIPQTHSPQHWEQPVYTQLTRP
GST-fused Sox9 region #1 (1–99 a.a.): residues 1-99 of Q04887
GST-fused Sox9 region #2 (95–186 a.a.), HMG box domain: residues 95-186 of Q04887
GST-fused Sox9 region #3 (173–399 a.a.): residues 173-399 of Q04887
GST-fused Sox9 region #4 (336–507 a.a.): residues 336-507 of Q04887
UniProt P48432: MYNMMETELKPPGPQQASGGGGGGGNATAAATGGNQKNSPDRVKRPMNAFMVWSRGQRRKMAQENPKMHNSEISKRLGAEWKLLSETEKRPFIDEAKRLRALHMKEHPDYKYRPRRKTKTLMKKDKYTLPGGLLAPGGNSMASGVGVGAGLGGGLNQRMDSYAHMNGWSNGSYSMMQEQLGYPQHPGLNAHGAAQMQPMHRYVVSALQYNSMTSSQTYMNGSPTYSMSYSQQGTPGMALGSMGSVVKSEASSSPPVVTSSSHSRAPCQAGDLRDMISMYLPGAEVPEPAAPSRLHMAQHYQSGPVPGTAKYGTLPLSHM
UniProt Q7M6Y2: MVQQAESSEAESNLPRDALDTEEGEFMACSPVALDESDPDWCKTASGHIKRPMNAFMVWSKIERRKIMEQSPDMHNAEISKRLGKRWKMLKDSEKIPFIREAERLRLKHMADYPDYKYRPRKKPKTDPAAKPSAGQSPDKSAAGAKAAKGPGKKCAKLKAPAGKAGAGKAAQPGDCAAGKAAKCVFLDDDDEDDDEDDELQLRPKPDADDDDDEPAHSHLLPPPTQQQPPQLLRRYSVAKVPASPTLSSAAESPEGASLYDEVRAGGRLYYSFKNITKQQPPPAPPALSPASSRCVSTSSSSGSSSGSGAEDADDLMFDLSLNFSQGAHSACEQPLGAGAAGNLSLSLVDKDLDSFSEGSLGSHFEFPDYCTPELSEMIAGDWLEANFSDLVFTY
GST-tagged HMG box fragment of Sox11 (38–130 a.a.): residues 38-130 of Q7M6Y2
UniProt P48436: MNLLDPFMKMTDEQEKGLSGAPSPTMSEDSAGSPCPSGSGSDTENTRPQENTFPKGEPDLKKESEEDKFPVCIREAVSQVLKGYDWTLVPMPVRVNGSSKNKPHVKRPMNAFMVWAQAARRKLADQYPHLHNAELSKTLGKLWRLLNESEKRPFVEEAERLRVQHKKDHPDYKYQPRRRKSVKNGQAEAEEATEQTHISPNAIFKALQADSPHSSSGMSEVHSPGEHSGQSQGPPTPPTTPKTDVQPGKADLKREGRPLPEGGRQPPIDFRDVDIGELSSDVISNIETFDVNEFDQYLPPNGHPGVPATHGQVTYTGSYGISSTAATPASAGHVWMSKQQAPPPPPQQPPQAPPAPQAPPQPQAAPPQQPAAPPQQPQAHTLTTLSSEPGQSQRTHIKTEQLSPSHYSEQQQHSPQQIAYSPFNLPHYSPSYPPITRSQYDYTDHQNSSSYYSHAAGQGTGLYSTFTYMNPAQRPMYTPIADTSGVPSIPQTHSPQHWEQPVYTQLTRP
UniProt Q9C0E2: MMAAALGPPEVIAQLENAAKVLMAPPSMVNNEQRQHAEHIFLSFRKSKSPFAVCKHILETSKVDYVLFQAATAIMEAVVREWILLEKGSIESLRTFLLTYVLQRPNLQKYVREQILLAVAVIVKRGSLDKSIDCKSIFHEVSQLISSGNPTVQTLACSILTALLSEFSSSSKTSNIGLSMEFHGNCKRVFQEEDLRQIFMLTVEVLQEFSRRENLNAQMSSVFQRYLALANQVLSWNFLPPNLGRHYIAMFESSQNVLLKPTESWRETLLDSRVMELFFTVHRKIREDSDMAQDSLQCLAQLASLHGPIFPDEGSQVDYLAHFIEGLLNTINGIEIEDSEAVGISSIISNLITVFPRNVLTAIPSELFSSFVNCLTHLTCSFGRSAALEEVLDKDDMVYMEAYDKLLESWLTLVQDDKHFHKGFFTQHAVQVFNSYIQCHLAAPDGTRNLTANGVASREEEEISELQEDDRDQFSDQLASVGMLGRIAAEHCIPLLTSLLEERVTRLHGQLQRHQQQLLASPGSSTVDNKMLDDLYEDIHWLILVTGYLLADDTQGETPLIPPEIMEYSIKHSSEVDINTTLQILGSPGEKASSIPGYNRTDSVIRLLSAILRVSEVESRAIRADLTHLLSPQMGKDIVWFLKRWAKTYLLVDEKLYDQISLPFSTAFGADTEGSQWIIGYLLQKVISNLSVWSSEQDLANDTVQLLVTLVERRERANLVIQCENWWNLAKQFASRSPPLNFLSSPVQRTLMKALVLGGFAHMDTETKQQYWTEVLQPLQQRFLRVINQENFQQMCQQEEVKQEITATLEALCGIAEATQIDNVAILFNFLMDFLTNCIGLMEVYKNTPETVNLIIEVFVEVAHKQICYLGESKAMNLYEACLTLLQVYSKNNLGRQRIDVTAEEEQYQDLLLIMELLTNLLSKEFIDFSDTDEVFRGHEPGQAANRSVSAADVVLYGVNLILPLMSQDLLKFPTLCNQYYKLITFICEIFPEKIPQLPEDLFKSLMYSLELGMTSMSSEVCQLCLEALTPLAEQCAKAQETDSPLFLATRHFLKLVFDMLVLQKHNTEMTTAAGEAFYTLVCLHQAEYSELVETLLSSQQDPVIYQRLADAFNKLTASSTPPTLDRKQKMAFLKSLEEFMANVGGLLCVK

binding [1]: binds | binding [2]: binds | binding [3]: no binding
Substance: FLAG-Exp4 expressed in HEK293 cells (from UniProt Q9C0E2 1-1151)

binding [4]: no binding | binding [5]: binds | binding [6]: no binding | binding [7]: no binding
Substance: exportin 4 (Exp4), endogenous in HeLa nuclear extract (from UniProt Q9C0E2 1-1151)

binding [8]: binds
Substance: exportin 4 (Exp4), endogenous in U2OS nuclear extract (from UniProt Q9C0E2 1-1151)

binding [9]: no binding
Substance: purified recombinant FLAG-Exp4 protein (from UniProt Q9C0E2 1-1151)

Source: article PMC3185033
